Some of the results follow.
System: PfHDP1 homeodomain (GST-tagged)
Test: gcPBM binding intensity (ln(normalized median fluorescence intensity)); higher = stronger DNA binding
Outline: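 An Agilent 4 × 180k array carrying primer-extended double-stranded 36-bp intergenic genomic probes and negative controls received GST-tagged P. falciparum DNA-binding domains expressed in E. coli, about 25 μg on average, for 1 h. The binding buffer contained 1× PBS, 1% milk, 0.2 mg/ml BSA, 0.5% salmon testes DNA and 0.03% Triton X-100. Binding intensity is the top Masliner-normalised natural-log median intensity across replicate spots of either probe orientation, read after Alexa488 anti-GST antibody staining and a 488 nm scan.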

Row | Sequence | gcPBM binding intensity (ln)
1 | TCATAAAAATAAAAATGTACACATTAGAAATATTGT [XGTACX_site3671] | 6.58
2 | ATATTTTTTTTTGTTACACACGTTTTTTAAAAAATG [CACACA_site1603] | 7.07
3 | AGAAATAAAAAAAAAAATATATATATTATATATATA [CACACA_negctrl_site1799] | 7.74
4 | TTATAATTTTTCTATTGTACATTTAATAATATATAT [XGTACX_site7326] | 6.59
5 | TTATACATATTTATATGTACGTAATATAATATTAAT [XGTACX_site6520] | 6.6
6 | TATTTAATTTATACACGTACATATATAAATAATACA [XGTACX_site1148] | 6.55
7 | ATGAAGAAATAAATGTGTACATATCTTAGTATCATA [XGTACX_site8658] | 6.48
8 | TTATAAAATAAACTTACACACATGAAATATTATAGT [CACACA_site7000] | 6.35
9 | CAAACAAATTGTGAAACACACATATTTATATTTATA [CACACA_site7030] | 6.15
10 | TTTATATGCAATTAAGTGCATAAGAAAAAAAAAGGA [GTGCAC_site9966] | 10.1
11 | TATATTATATATTTATGTACGTATTTGTAAAAAGAT [XGTACX_site3444] | 6.86
12 | TTATAATAAATATTTATTATATATAATATATATTAC [CACACA_negctrl_site1802] | 6.52
13 | TTTTTTATTAAATATATATAATAATAATAATTTGTA [CACACA_negctrl_site1719] | 5.9
14 | TTTGTTTTATGTGGTTGTACACAAATACAATTTAAA [XGTACX_site5156] | 6.4
15 | GTTTCCTTAATATTCACACACATATCTATAATATAT [CACACA_site6959] | 7.22
16 | ATAATAATTATATCAGTGCGCATATATATTTATTTA | 7.29
17 | TCATAGCACAAAAAATGTACTTATTATTTAATATTT [XGTACX_site5687] | 6.32
18 | ATGTGATAATTTAATAGTACATAACAGTTTAACAAT [XGTACX_site5854] | 6.86
19 | CAAAATTAATAAGTCACACACACATATATAATATAT [CACACA_site798] | 6.87

Row | Sequence | gcPBM binding intensity (ln)
20 | TATATTTATACAATATGTACATATTATATATATATA [XGTACX_site3098] | 8.6
21 | TATAAAAATATATGCACACAAATAAAAAATTATATA [CACACA_site3629] | 9.87
22 | GATCATAATATTTAAAAGAATATATATAAAAAGGAA [XGTACX_negctrl_site310] | 6.66
23 | ATGGTATCTTTTAGAAGTACATCATGATAATAATTT [XGTACX_site5544] | 6.36
24 | GTATTAATTTATATATGTACATATGTGATATATATA [XGTACX_site5825] | 6.85
25 | CACTTAAAAAAAATACGTACACATATATATATATAT [XGTACX_site2054] | 9.39
26 | TATCAGTATACAACAACACACATAATGTTTGTCATC [CACACA_site2980] | 6.67
27 | CAAAAATAAATATAAACACACAATAAATAAATAAAT [CACACA_site891] | 6.6
28 | ATTTAATAACGGCATGCATGTCCTTATATAAATTTA [TGCATGCA_site1012] | 6.66
29 | TGAATTGTAATTTATAATATACGTGGTTTCTACTTA [CACACA_negctrl_site559] | 6.16
30 | CCTTACCAAATAATATGTACACATTTAATGTTATAT [XGTACX_site7840] | 6.67
31 | TATTATATATTATATAGTACATATTTATGTAAGAGG [XGTACX_site3099] | 6.97
32 | TATCAAAAAAAAAGTAGTACGATAATAGTTTCCCAA [XGTACX_site1812] | 6.44
33 | AAAAAAAAAACAAATGCATGTAATATAAGAATTACA [TGCATGCA_site908] | 6.13
34 | ACTTATAATATTTAGTGTACATATTGTGACTAATAC [XGTACX_site1508] | 6.54
35 | ATTTTAAAAAATTAATGTACTTAATTAATACTGAAA [XGTACX_site7702] | 6.18
36 | TATTTATAAATTTACACACACACATGTGAACATAAA [CACACA_site1909] | 6.82
37 | TGGAATAAAAAAAGGAGTACAATTAATTATTCTTAA [XGTACX_site8299] | 6.3
38 | TATATATATATATATGTGCACATATTTATATGTTTT | 10.3

Row | Sequence | gcPBM binding intensity (ln)
39 | CACCCATACACATACAAACACACATTCTATATATAT [CACACA_site1600] | 7.21
40 | GAAATTAAATGACATACACACTATATTATATATTTT [CACACA_site5693] | 6.36
41 | TAGATAGATTAAAATACATGCATATTATTAAAAAAT [TGCATGCA_site739] | 6.36
42 | TATCTTCAATGTGAAAGTACTTAAATTGTTATAAAA [XGTACX_site2586] | 6.3
43 | AATCATAAACATTATGCACACAAAAATAAAAAAAAA [CACACA_site8289] | 8.58
44 | ATTTAATGTATTTTGCGTACGAATTATTTTATTTCA [XGTACX_site7331] | 6.6
45 | CATACATACATACATACACACATACATATGTATATA [CACACA_site7216] | 7.57
46 | AGCATAAAAATGATATGTACATATATATATATATAT [XGTACX_site2836] | 9.34
47 | ATATAGTTCGATATAGTTAGTATGAATTGAAAAATA [CACACA_negctrl_site1826] | 6.16
48 | AAAAAAATAAAACACACACACAAAAAAATAAAAATA [CACACA_site465] | 6.91
49 | TTTTTAAAATATTTAACACACAATTTTAATGCATAA [CACACA_site6036] | 6.36
50 | GTTGTGTAATTCGTAACACACATAAAATATATATAA [CACACA_site6059] | 6.56
51 | TTTTCATTTTTTTTTTTTTTTTTTTTTCTTTTTTTT [CACACA_negctrl_site1312] | 5.86
52 | ATTTCTTTAATATACACACACCAAAACAAAAAAAAA [CACACA_site6416] | 6.86
53 | ATTTGTTCATTTGGTTGTACATAATTTATTTTTATA [XGTACX_site785] | 6.36
54 | AAAATAAAATAACGTTGTACAACATCATTTCTATAT [XGTACX_site5080] | 6.37
55 | AACAATATATTGAATAGTACATATATATAAACATAT [XGTACX_site2811] | 6.64
56 | AACATTTATAAATATTGTACATATAGATTTATATAT [XGTACX_site2662] | 6.41
57 | GGAATACAGGAAAAAAGTACAGAAAATGGAATATTA [XGTACX_site5053] | 6.39

From the supplement of paper PMC11417369
